Measurements reported in US11000038B2, “Pyridone compounds and agricultural and horticultural fungicides containing the same as active ingredients” (priority 2017, dated 2021).

Key:
[1] = system: gray mold fungi (Botrytis cinerea); assay: Test Example B: tomato gray mold, spray treatment of tomato plants; details: tomato gray mold, spray treatment
[2] = system: wheat brown rust fungi (Puccinia recondita); assay: Test Example E: wheat brown rust, spray treatment of wheat plants; type: in vivo; details: wheat brown rust, spray treatment
[3] = system: cabbage Alternaria sooty spot fungi (Alternaia brassicicola); assay: Test Example C: cabbage Alternaria sooty spot, spray treatment of cabbage plants; type: in vivo; details: cabbage Alternaria sooty spot, spray treatment
From the text: [Test Example C] Cabbage Alternaria Sooty Spot
Test plants (cabbage variety: Shikidori) were cultivated until the cotyledons extended after the sowing of seeds.
<Control Value> Control value=100{1−(n/3)}

[4] = system: barley powdery mildew fungi (Blumeria graminis f. sp. hordei); assay: Test Example D: barley powdery mildew, spray treatment of barley plants; details: barley powdery mildew, spray treatment
[5] = system: grape downy mildew fungus (Plasmopara viticola); assay: Test Example G: grape downy mildew, spray treatment of grape plants; details: grape downy mildew, 250 ppm spray, 7 to 10 days after inoculation

SMILES	Test B control value [1]	Test E control value [2]	Test C control value [3]	Test D control value [4]	Test G control value [5]
CCc1c(-c2ccccc2)n(-c2cc(Br)ccc2C)cc(Br)c1=O [Compound 499]	L (L shows the control value of 50% or less)	L (L shows the control value of 50% or less)	L (L shows the control value of 50% or less)	L (L shows the control value of 50% or less)	L (L shows the control value of 50% or less)
CCc1c(-c2ccccc2)n(-c2cccc(C)c2C)cc(C)c1=O [Compound 503]	L (L shows the control value of 50% or less)	L (L shows the control value of 50% or less)	H (H shows the control value of more than 50%)	L (L shows the control value of 50% or less)	L (L shows the control value of 50% or less)
CCc1c(-c2ccccc2)n(-c2cccc(F)c2C)cc(Br)c1=O [Compound 505]	H (H shows the control value of more than 50%)	H (H shows the control value of more than 50%)	H (H shows the control value of more than 50%)	H (H shows the control value of more than 50%)	L (L shows the control value of 50% or less)
CCc1c(-c2ccccc2)n(-c2cccc(Cl)c2C)cc(Br)c1=O [Compound 506]	H (H shows the control value of more than 50%)	H (H shows the control value of more than 50%)	H (H shows the control value of more than 50%)	H (H shows the control value of more than 50%)	L (L shows the control value of 50% or less)
CCc1c(-c2c(F)cccc2F)n(-c2ccccc2C)cc(Br)c1=O [Compound 507]	H (H shows the control value of more than 50%)	L (L shows the control value of 50% or less)	H (H shows the control value of more than 50%)	L (L shows the control value of 50% or less)	L (L shows the control value of 50% or less)
CCc1c(-c2c(F)cccc2F)n(-c2ccccc2C)cc(C)c1=O [Compound 508]	H (H shows the control value of more than 50%)	H (H shows the control value of more than 50%)	H (H shows the control value of more than 50%)	L (L shows the control value of 50% or less)	L (L shows the control value of 50% or less)
CCc1ccccc1-n1cc(C)c(=O)c(CC)c1-c1c(F)cccc1F [Compound 510]	H (H shows the control value of more than 50%)	L (L shows the control value of 50% or less)	H (H shows the control value of more than 50%)	L (L shows the control value of 50% or less)	L (L shows the control value of 50% or less)
CCc1c(-c2c(F)cccc2F)n(-c2ccccc2Cl)cc(Br)c1=O [Compound 511]	H (H shows the control value of more than 50%)	H (H shows the control value of more than 50%)	H (H shows the control value of more than 50%)	H (H shows the control value of more than 50%)	L (L shows the control value of 50% or less)
CCc1c(-c2c(F)cccc2F)n(-c2ccccc2Cl)cc(C)c1=O [Compound 512]	H (H shows the control value of more than 50%)	H (H shows the control value of more than 50%)	H (H shows the control value of more than 50%)	H (H shows the control value of more than 50%)	L (L shows the control value of 50% or less)
